Assay [1] addresses T1, RBFOX1 RRM (Homo sapiens, UniProt Q9NWB1 109-208).
T1 sequence: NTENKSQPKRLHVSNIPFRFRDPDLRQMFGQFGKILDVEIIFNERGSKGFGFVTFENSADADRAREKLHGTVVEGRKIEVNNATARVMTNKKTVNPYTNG
As to the kind of experiment: EMSA; HiTS-Eq, 1 nM pool, 10 min; buffer printed only for the single-RNA assays: 10 mM Tris pH 7.5, 150 mM NaCl, 3.4 mM EDTA, 0.001% NP-40, 30 C. The conditions noted are these: tags: His6 N-terminal (pET28a); label: 5' 32P. The gist of the method: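 Purified RbFox RRM, wild type or mutant, was incubated for 10 min in 50 µL with 1 nM of a 5′-radiolabelled RNA pool carrying 7 randomized nucleotides, whose flanks were annealed to DNA oligonucleotides, over a series of increasing protein concentrations. Unbound RNA was resolved on 8% native PAGE, cut out, reverse-transcribed, barcoded by PCR and sequenced on an Illumina HiSeq 2500. Relative association constants were derived from changes in read counts for each RNA species versus the control reaction and normalised to the cognate motif.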

In assay [2] the target is T1, RBFOX1 RRM. As to the kind of experiment: competition; 10 mM Tris pH 7.5, 150 mM NaCl, 3.4 mM EDTA, 0.001% NP-40, 30 C. The conditions noted are these: tags: His6 N-terminal (pET28a).

Residue numbers refer to the chain shown, from its start. Some of the results follow.

B1: UCGAACG (DNA:RNA)
RNA: GGGAGACCGGAAUUCAGAUUGUCCUCGAACGUUAAAUCCCGUCGUAGCCACCA
DNA 1: CAATCTGAATTCCGGTCTCCC
DNA 2: TGGTGGCTACGACGGGATT
Regarding B1, the binding signal with RBFOX1 RRM [1] is 0.0172 KA relative to UGCAUGU.

B2: AGACUUU (DNA:RNA)
RNA: GGGAGACCGGAAUUCAGAUUGUCCAGACUUUUUAAAUCCCGUCGUAGCCACCA
DNA 1: CAATCTGAATTCCGGTCTCCC
DNA 2: TGGTGGCTACGACGGGATT
Turning to B2, in the assay with RBFOX1 RRM [1], the binding signal is 0.0086 KA relative to UGCAUGU.

B3: ACCGGCA (DNA:RNA)
RNA: B1 RNA with U25A, G27C, A28G, A29G, G31A
DNA 1: CAATCTGAATTCCGGTCTCCC
DNA 2: TGGTGGCTACGACGGGATT
On to B3, for which the binding signal in the assay with RBFOX1 RRM [1] was 0.00809 KA relative to UGCAUGU.

B4: AGCCGGC (DNA:RNA)
RNA: B2 RNA with A27C, U29G, U30G, U31C
DNA 1: CAATCTGAATTCCGGTCTCCC
DNA 2: TGGTGGCTACGACGGGATT
For B4, the binding signal with RBFOX1 RRM [1] was 0.00734 KA relative to UGCAUGU.

B5: UGUAAGA (DNA:RNA)
RNA: B1 RNA with C26G, G27U, C30G, G31A
DNA 1: CAATCTGAATTCCGGTCTCCC
DNA 2: TGGTGGCTACGACGGGATT
As to B5, in the assay with RBFOX1 RRM [1], the binding signal is 0.0151 KA relative to UGCAUGU.

B6: AUUUUAC (DNA:RNA)
RNA: B2 RNA with G26U, A27U, C28U, U30A, U31C
DNA 1: CAATCTGAATTCCGGTCTCCC
DNA 2: TGGTGGCTACGACGGGATT
Turning to B6, in the assay with RBFOX1 RRM [1], the binding signal is 0.006 KA relative to UGCAUGU.

B7: CAUUGUC (DNA:RNA)
RNA: B2 RNA with A25C, G26A, A27U, C28U, U29G, U31C
DNA 1: CAATCTGAATTCCGGTCTCCC
DNA 2: TGGTGGCTACGACGGGATT
In the case of B7, the binding signal in the assay with RBFOX1 RRM [1] was 0.00929 KA relative to UGCAUGU.

B8: AGAUUUA (DNA:RNA)
RNA: B2 RNA with C28U, U31A
DNA 1: CAATCTGAATTCCGGTCTCCC
DNA 2: TGGTGGCTACGACGGGATT
In the case of B8, the binding signal with RBFOX1 RRM [1] was 0.00707 KA relative to UGCAUGU.

B9: AGUCAUA (DNA:RNA)
RNA: B2 RNA with A27U, U29A, U31A
DNA 1: CAATCTGAATTCCGGTCTCCC
DNA 2: TGGTGGCTACGACGGGATT
Take B9: the binding signal in the assay with RBFOX1 RRM [1] was 0.00123 KA relative to UGCAUGU.

B10: UUUGGAA (DNA:RNA)
RNA: B1 RNA with C26U, G27U, A28G, A29G, C30A, G31A
DNA 1: CAATCTGAATTCCGGTCTCCC
DNA 2: TGGTGGCTACGACGGGATT
For B10, the binding signal in the assay with RBFOX1 RRM [1] is 0.00819 KA relative to UGCAUGU.

B11: GCCCGGG (DNA:RNA)
RNA: B1 RNA with U25G, G27C, A28C, A29G, C30G
DNA 1: CAATCTGAATTCCGGTCTCCC
DNA 2: TGGTGGCTACGACGGGATT
On to B11, for which the binding signal in the assay with RBFOX1 RRM [1] was 0.0183 KA relative to UGCAUGU.

B12: CGUUCAG (DNA:RNA)
RNA: B2 RNA with A25C, A27U, C28U, U29C, U30A, U31G
DNA 1: CAATCTGAATTCCGGTCTCCC
DNA 2: TGGTGGCTACGACGGGATT
For B12, the binding signal in the assay with RBFOX1 RRM [1] was 0.0112 KA relative to UGCAUGU.

B13: AGGCGAC (DNA:RNA)
RNA: B2 RNA with A27G, U29G, U30A, U31C
DNA 1: CAATCTGAATTCCGGTCTCCC
DNA 2: TGGTGGCTACGACGGGATT
For the molecule B13, the binding signal with RBFOX1 RRM [1] is 0.00548 KA relative to UGCAUGU.

B14: UGCGUGU (ssRNA)
RNA: UGCGUGU
For the molecule B14, in the assay with RBFOX1 RRM [2], the binding signal was 196 nM.

B15: CUAUACA (DNA:RNA)
RNA: B1 RNA with U25C, C26U, G27A, A28U, G31A
DNA 1: CAATCTGAATTCCGGTCTCCC
DNA 2: TGGTGGCTACGACGGGATT
Regarding B15, in the assay with RBFOX1 RRM [1], the binding signal is 0.00316 KA relative to UGCAUGU.

B16: CCAGAGU (DNA:RNA)
RNA: B2 RNA with A25C, G26C, C28G, U29A, U30G
DNA 1: CAATCTGAATTCCGGTCTCCC
DNA 2: TGGTGGCTACGACGGGATT
Take B16: the binding signal in the assay with RBFOX1 RRM [1] was 0.00818 KA relative to UGCAUGU.

B17: UACGUUA (DNA:RNA)
RNA: B2 RNA with A25U, G26A, A27C, C28G, U31A
DNA 1: CAATCTGAATTCCGGTCTCCC
DNA 2: TGGTGGCTACGACGGGATT
On to B17, for which the binding signal in the assay with RBFOX1 RRM [1] is 0.00791 KA relative to UGCAUGU.

B18: ACCAGGA (DNA:RNA)
RNA: B1 RNA with U25A, G27C, A29G, C30G, G31A
DNA 1: CAATCTGAATTCCGGTCTCCC
DNA 2: TGGTGGCTACGACGGGATT
On to B18, for which, in the assay with RBFOX1 RRM [1], the binding signal was 0.00385 KA relative to UGCAUGU.

B19: CCUUGCA (DNA:RNA)
RNA: B1 RNA with U25C, G27U, A28U, A29G, G31A
DNA 1: CAATCTGAATTCCGGTCTCCC
DNA 2: TGGTGGCTACGACGGGATT
Take B19: the binding signal with RBFOX1 RRM [1] is 0.0157 KA relative to UGCAUGU.

B20: UACGAAC (DNA:RNA)
RNA: B1 RNA with C26A, G27C, A28G, C30A, G31C
DNA 1: CAATCTGAATTCCGGTCTCCC
DNA 2: TGGTGGCTACGACGGGATT
As to B20, the binding signal with RBFOX1 RRM [1] was 0.00432 KA relative to UGCAUGU.

The values above are taken from paper PMC9911399, “Two distinct binding modes provide the RNA-binding protein RbFox with extraordinary sequence specificity”.
